# Laboratory results as given in the antibiotic and cytotoxicity screens of Wong et al. (2023).
# The list shows a part of the results.
# System: HSkMC (human skeletal muscle cells)
# Test: cytotoxicity call (relative viability < 0.9)
# Settings: 10 µM
row,SMILES,cytotoxicity call
1,CN1C(=O)c2cc(NC(=O)c3cnccn3)ccc2OC[C@H]2O[C@H](CC(=O)N[C@@H]3CCN(Cc4ccccc4)C3)CC[C@@H]21,inactive
2,C[C@@H]1CN([C@H](C)CO)C(=O)c2cc(NC(=O)c3ccccc3)ccc2O[C@@H](C)CCCCO[C@H]1CN(C)Cc1ccc(Cl)c(Cl)c1,inactive
3,COc1ccc(CNC(=O)N(C)C[C@H]2OCc3ccccc3-c3c(n(C)c4ccccc34)C(=O)N([C@@H](C)CO)C[C@@H]2C)cc1,inactive
4,O=c1ccc2ccccc2o1,inactive
5,C[C@@H]1CN([C@H](C)CO)C(=O)Cc2cc(NS(=O)(=O)c3ccccc3)ccc2O[C@@H]1CN(C)CC1CC1,inactive
6,O=C1C(CCC(O)c2ccc(F)cc2)C(c2ccc(O)cc2)N1c1ccc(F)cc1 (stereo not given),inactive
7,O=C(CCCCCC(=O)N/N=C/[C@H](O)[C@@H](O)[C@@H](O)[C@H](O)CO)NO,inactive
8,COc1ccc(NC(=O)N(C)C[C@H]2OCCCC[C@@H](C)Oc3ccc(NC(=O)Nc4c(C)noc4C)cc3C(=O)N([C@H](C)CO)C[C@H]2C)cc1,inactive
9,O=C(Nc1ccc(C(F)(F)F)cc1)Nc1ccc2c(c1)[C@H]1C[C@H](CC(=O)N3CCc4ccccc4C3)O[C@@H](CO)[C@H]1O2,inactive
10,NC(=O)NCC#Cc1ccc2c(c1)[C@]1(C(=O)N2)[C@H](C(=O)O)[C@H]2C(=O)O[C@H](c3ccccc3)[C@H](c3ccccc3)N2[C@@H]1c1ccc(OCCO)cc1,inactive

# System: HepG2
# Test: cytotoxicity call (relative viability < 0.9)
# Settings: 10 µM
row,SMILES,cytotoxicity call
1,Cc1ccc(S(=O)(=O)Nc2cccc3c2O[C@@H](CN(C)Cc2ccc(C(F)(F)F)cc2)[C@H](C)CN([C@H](C)CO)C3=O)cc1,inactive
2,Cc1noc(C)c1S(=O)(=O)N(C)C[C@H]1Oc2ccc(NS(=O)(=O)c3cn(C)cn3)cc2C(=O)N([C@H](C)CO)C[C@H]1C,inactive
3,O=C(O)c1csc2c1CCCCC2,inactive
4,C[C@@H]1CN([C@H](C)CO)C(=O)c2cccc(NS(=O)(=O)c3cccs3)c2O[C@H]1CN(C)Cc1ccc(Oc2ccccc2)cc1,inactive
5,C[C@@H]1CCCCO[C@H](CN(C)Cc2ccc(C(F)(F)F)cc2)[C@@H](C)CN([C@H](C)CO)C(=O)c2cc(NC(=O)c3ccncc3)ccc2O1,inactive
6,NNC(=O)CNc1ccc2c(c1)OCO2,inactive
7,CC(=O)N1CC(=O)N(c2cnn(C)c2)C[C@]12CCN(C(=O)N(C)C)C2,inactive
8,Cc1noc(C)c1NC(=O)Nc1ccc2c(c1)CC(=O)N([C@H](C)CO)C[C@H](C)[C@H](CN(C)Cc1ccc(Oc3ccccc3)cc1)O2,inactive
9,Cn1c(=O)[nH]c(=O)c2c1ncn2CCN1CCOCC1,inactive
10,C[C@H]1CCCCO[C@@H](CN(C)S(C)(=O)=O)[C@@H](C)CN([C@@H](C)CO)C(=O)c2cc(N(C)C)ccc2O1,inactive
11,CC(C)CC#Cc1cnc2c(c1)C(=O)N([C@H](C)CO)C[C@H](C)[C@@H](CN(C)C(=O)CCN1CCCCC1)O2,inactive
12,C[C@H](CO)N1C[C@H](C)[C@@H](CN(C)CC2CCCCC2)Oc2c(NC(=O)Cn3cnnn3)cccc2C1=O,inactive
13,COc1ccc(NC(=O)Nc2ccc3c(c2)C(=O)N([C@@H](C)CO)C[C@@H](C)[C@H](CN(C)Cc2ccncc2)OCCCC[C@@H](C)O3)cc1,inactive
14,CC(=O)n1cc([C@@H]2C=C(C(=O)N3CCN(Cc4ccccc4)CC3)O[C@H](OCc3ccc(CO)cc3)C2)c2ccccc21,inactive
15,Cc1ccc(C(=O)Nc2cccc(C(F)(F)F)c2)cc1Nc1nc(-c2cccnc2)nc2c1cnn2C,active
16,C[C@@H]1CN([C@H](C)CO)C(=O)Cc2cc(NC(=O)CCCCCC(=O)Nc3ccccc3N)ccc2O[C@H]1CN(C)C(=O)Nc1cccc2ccccc12,inactive
17,C[C@@H]1CN([C@@H](C)CO)S(=O)(=O)c2ccc(C#CCN(C)C)cc2O[C@H]1CN(C)C(=O)CN(C)C,inactive
18,Cc1noc(C)c1S(=O)(=O)Nc1ccc2c(c1)C(=O)N([C@@H](C)CO)C[C@H](C)[C@H](CN(C)C(=O)NC(C)C)O2,inactive
19,N#C[C@H]1[C@H](c2ccc(C#Cc3ccccn3)cc2)[C@@H](CO)N1C(=O)CN1CCOCC1,inactive
20,Cc1noc(C)c1NC(=O)N(C)C[C@H]1OCCCC[C@@H](C)Oc2ccc(NS(=O)(=O)c3ccc(Cl)cc3)cc2C(=O)N([C@H](C)CO)C[C@@H]1C,inactive

row,SMILES,cytotoxicity call
1,C[C@@H]1CCCCO[C@H](CN(C)C(=O)c2ccccc2)[C@H](C)CN([C@@H](C)CO)C(=O)c2cc(NC(=O)Cc3ccccc3)ccc2O1,inactive
2,C[C@H](CO)N1C[C@H](C)[C@@H](CN(C)S(=O)(=O)c2cccs2)Oc2ccc(NC(=O)c3ccncc3)cc2C1=O,inactive
3,C[C@@H]1CN([C@@H](C)CO)C(=O)c2cc(NS(=O)(=O)c3cccs3)ccc2O[C@@H]1CN(C)S(C)(=O)=O,inactive
4,C[C@@H]1CCCCO[C@@H](CN(C)C(=O)Nc2ccc(C(F)(F)F)cc2)[C@H](C)CN([C@H](C)CO)C(=O)c2cc(NC(=O)c3ccncc3)ccc2O1,inactive
5,C[C@@H]1CN([C@H](C)CO)C(=O)c2cc(NC(=O)Cn3cnnn3)ccc2O[C@@H]1CN(C)Cc1ccncc1,inactive
6,Cc1noc(C)c1S(=O)(=O)N(C)C[C@@H]1Oc2ccc(NS(=O)(=O)c3ccc(Cl)cc3)cc2CC(=O)N([C@H](C)CO)C[C@H]1C,inactive
7,CC(C)NC(=O)N(C)C[C@H]1Oc2ccc(NS(=O)(=O)c3ccc(F)cc3)cc2CC(=O)N([C@@H](C)CO)C[C@H]1C,inactive
8,C[C@@H]1CCCCO[C@@H](CN(C)S(=O)(=O)c2cn(C)cn2)[C@@H](C)CN([C@@H](C)CO)C(=O)c2cc(NC(=O)Nc3ccc(C(F)(F)F)cc3)ccc2O1,inactive
9,NS(=O)(=O)c1ccc2c(c1)COC2,inactive
10,C[C@@H]1CCCCO[C@H](CN(C)S(C)(=O)=O)[C@H](C)CN([C@@H](C)CO)C(=O)c2cc(NS(=O)(=O)c3ccc(F)cc3)ccc2O1,inactive
11,CN1C(=O)c2cc(NC(=O)c3cnccn3)ccc2OC[C@H]2O[C@H](CC(=O)N[C@@H]3CCN(Cc4ccccc4)C3)CC[C@@H]21,inactive
12,C[C@@H]1CN([C@H](C)CO)C(=O)c2cc(NC(=O)c3ccccc3)ccc2O[C@@H](C)CCCCO[C@H]1CN(C)Cc1ccc(Cl)c(Cl)c1,active
13,COc1ccc(CNC(=O)N(C)C[C@H]2OCc3ccccc3-c3c(n(C)c4ccccc34)C(=O)N([C@@H](C)CO)C[C@@H]2C)cc1,inactive
14,O=c1ccc2ccccc2o1,inactive
15,C[C@@H]1CN([C@H](C)CO)C(=O)Cc2cc(NS(=O)(=O)c3ccccc3)ccc2O[C@@H]1CN(C)CC1CC1,inactive
16,O=C1C(CCC(O)c2ccc(F)cc2)C(c2ccc(O)cc2)N1c1ccc(F)cc1 (stereo not given),inactive
17,O=C(CCCCCC(=O)N/N=C/[C@H](O)[C@@H](O)[C@@H](O)[C@H](O)CO)NO,inactive
18,COc1ccc(NC(=O)N(C)C[C@H]2OCCCC[C@@H](C)Oc3ccc(NC(=O)Nc4c(C)noc4C)cc3C(=O)N([C@H](C)CO)C[C@H]2C)cc1,inactive
19,O=C(Nc1ccc(C(F)(F)F)cc1)Nc1ccc2c(c1)[C@H]1C[C@H](CC(=O)N3CCc4ccccc4C3)O[C@@H](CO)[C@H]1O2,inactive
20,NC(=O)NCC#Cc1ccc2c(c1)[C@]1(C(=O)N2)[C@H](C(=O)O)[C@H]2C(=O)O[C@H](c3ccccc3)[C@H](c3ccccc3)N2[C@@H]1c1ccc(OCCO)cc1,inactive
